Hit rate of the full screen: of about 320,000 compounds, about 7,600 (2.4%) were called active. Inconclusive means that the source gave no clear call. Such entries were picked first, then a sample of the others. Calls follow the shape of the dose curve; as a rule, active = well fitted activation curve with a large enough effect; inconclusive = small, poorly fitted or top-dose-only effect; inactive = no such curve, though single readings can be large or run the other way. Potencies of inconclusive entries are left out as doubtful fits.
Assay: qHTS Assay for NPC1 Promoter Activators; also: nearly all actives have a fitted effect of over 60% in size;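 as to activation: reporter is driven by a mutant NPC1 promoter; % of control where 0% means no effect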
Settings: Huh7 NPC1 promoter luciferase reporter, 24 h; series mostly up to 9.22 µM; activation: at the top concentration
Procedure, shortened: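 Compounds in DMSO were transferred onto Huh7 NPC1-luciferase reporter cells pre-incubated 2 h; after 24 h at 37 °C, Amplite reagent was dispensed and luminescence recorded 10 min later.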
Potency is read from the fitted curve at half-maximal effect; tags tell the direction and shape of the fitted curve.

Compound | Potency | activation
O=C(O)c1ccc(N/N=C/c2cc(Br)cs2)cc1 | active: 0.0891 µM | 
O=C(N/N=C/C(Br)=C/c1ccccc1)c1ccccc1F | active: 3.55 µM | 
CN(C)c1ccc(NC(=O)CSc2nc(N)c(C(=O)Nc3ccc(N(C)C)cc3)s2)cc1 | inconclusive [activator, single point] | 
CN(C)C(CNC(=O)CNC(=O)c1ccc2ccccc2c1)c1ccccc1 (stereo not drawn) | inconclusive [activator, single point] | 
Cc1nc2ccc(NC(=O)CCC3CCCC3)cc2s1 | inconclusive [activator, single point] | 
O=C(/C=C/c1ccc2c(c1)OCO2)N1CCCCC1 | active: 3.55 µM | 
Fc1cccc(/C=N/Nc2nncc3ccccc23)c1 | active: 0.316 µM | 
OC(c1nnc(-c2ccccc2)o1)c1cccs1 (stereo not drawn) | inconclusive [activator, partial curve] | 
c1cncc(-c2nc(-c3ccc4c(c3)OCO4)cs2)c1 | active: 2.82 µM | 
Clc1ccccc1SCc1nc2ccccc2[nH]1 | inconclusive [activator, single point] | 
Cc1nn(-c2ccc(F)cc2)c(Cl)c1/C=N/NC(=O)c1cccs1 | inconclusive [activator, partial curve] | 
CCc1ccc(OCc2ccc(C(=O)O)o2)cc1 | inconclusive [activator, partial curve] | 
Cc1ccc(COc2ccc(C)nc2[N+](=O)[O-])cc1 | active: 0.794 µM | 
Cc1ccc(OCc2ccc(C(=O)O)o2)c([N+](=O)[O-])c1 | inconclusive [activator, partial curve] | 
COc1ccc(C(CNC(=O)c2oc3ccc(Cl)cc3c2C)N2CCCCC2)cc1 (stereo not drawn) |  | inactive: -1.97%
Cc1ccc(OCc2ccc(C(=O)Nc3nccs3)o2)cc1C | inconclusive [activator, partial curve] | 
CCc1ccc(NC(=O)CSc2nncn2-c2cccnc2)cc1 | inconclusive [activator, single point] | 
CN(Cc1c(F)cccc1Cl)C(=O)CCc1c[nH]c2ccccc12 |  | inactive: 1.1%
Cn1c(CNc2ccc(F)cc2)nc2ccccc21 | active: 2.24 µM | 
O=C(c1c(F)cccc1F)N1CCCC(c2nc(-c3cccs3)no2)C1 (stereo not drawn) | inconclusive [activator, partial curve] | 
Cc1nn(-c2ccccc2)c(C)c1C(=O)OCC(=O)Nc1ccccc1 | inconclusive [activator, single point] | 
O=[N+]([O-])c1cccc(N/N=C/c2cc([N+](=O)[O-])ccc2O)c1 | inconclusive [activator, partial curve] | 
COc1ccc(NC(=O)c2sccc2C)c([N+](=O)[O-])c1 | inconclusive [activator, single point] | 
Cn1c(N2CCOCC2)c(C#N)c2ccccc21 |  | inactive: -1.45%

Compound | Potency | activation
O=c1[nH]ncc(N/N=C\c2ccc(O)cc2O)c1Cl |  | inactive: -0.18%
Cc1cccc(CCNc2nc3ccc(C)cc3n3cnnc23)c1 | inconclusive [activator, single point] | 
FC(F)(F)c1cccc(N/N=C/c2ccccc2)c1 | inconclusive [activator, single point] | 
COc1ccc2cc(C(=O)NCC3CCCO3)[nH]c2c1 (stereo not drawn) | inconclusive [activator, single point] | 
Cc1c(C(=O)NC(=S)NCc2cccnc2)cccc1[N+](=O)[O-] |  | inactive: -0.23%
COc1ccc2c(c1)Cc1sc(NC(=O)c3cccs3)nc1-2 | active: 3.98 µM | 
COc1ccc(Nc2nc(N)nc(CSc3nncn3C)n2)cc1 |  | inactive: 17.4%
O=C(CSc1ccc(-c2ccccc2)nn1)c1cccs1 | inconclusive [activator, single point] | 
Clc1ccc(-c2csc(N/N=C/c3ccco3)n2)cc1 | inconclusive [activator, single point] | 
C/C(=N\NC(=O)c1cccc(O)c1)c1cccc(NC(=O)c2ccc(F)cc2)c1 | inconclusive [activator, single point] | 
O=c1sc(N2CCN(c3ccc(F)cc3)CC2)nc2ccsc12 | inconclusive [activator, single point] | 
COc1ccc(/C=N/Nc2nc3ccccc3[nH]2)cc1OC | inconclusive [activator, partial curve] | 
Fc1cccc(Cl)c1CSc1ccc(-c2ccco2)nn1 | inconclusive [activator, single point] | 
COc1ccc(-c2nnc(NC(=O)c3ccco3)s2)cc1 | active: 3.55 µM | 
O=C(Nc1ccc(-c2ccc(N3CCCCC3)nn2)cc1)c1ccco1 | inconclusive [activator, partial curve] | 
Brc1ccc(-c2ccc(/C=N/Nc3nc4ccccc4[nH]3)o2)cc1 | inconclusive [activator, single point] | 
Cc1nn(-c2ccccc2)c2sc(C(=O)NC3CC3)cc12 | inconclusive [activator, partial curve] | 
COCCCn1c(SCC(=O)NNC(=O)c2cccc(O)c2)nnc1-c1ccncc1 |  | inactive: -2.97%
O=C(N[C@H]1CC1c1ccccc1)c1ccc([N+](=O)[O-])cc1 (stereo partly drawn) | active: 1.12 µM | 
COc1ccc(C(=O)N2CC3(CC(c4cccc(NC(=O)CC(c5ccccc5)c5ccccc5)c4)=NO3)C[C@H]2C(N)=O)cc1 (stereo partly drawn) | inconclusive [activator, single point] | 
COc1ccc(Cl)c2sc(N(Cc3cccnc3)C(C)=O)nc12 |  | inactive: -9.46%
CCN(c1ccccc1)S(=O)(=O)c1ccc(C(=O)Oc2ccc(C(C)=O)cc2)cc1 |  | inactive: 1.22%
CC(C)(C)C(=O)Nc1ccc(C(=O)Nc2cccnc2)cc1 | inconclusive [activator, partial curve] | 
O=C(Nc1nnc(-c2cccnc2)s1)c1cccs1 | inconclusive [activator, partial curve] | 
